This sample is rich in variants without activity.
B1: TPR 5TU (parent)
chain: GGAUCUUCUCGAUCUAACAAAAAAGACAAAUCUGCCACAAAGCUUGAGAGCAUCUUCGGAUGCAGAGGCGGCAGCCUUCGGUGGCGCGAUAGCGCCAACGUUCUCAACUAUGACACGCAAAACGCGUGCUCCGUUGAAUGGAGUUUAUCAUG

Variants of: B1
Assay: polymerase ribozyme fitness, log enrichment relative to wild type (log ratio); higher = more active; in vitro selection for triplet polymerase activity
In short: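 Mutant libraries of both subunits of a heterodimeric triplet polymerase ribozyme were PCR-built, transcribed, and selected once in triplicate, with frozen incubation at −7 °C and capture of gel-excised extended constructs on streptavidin beads before RT-PCR. Illumina sequencing of input and output libraries was filtered to genotypes with ≥10 input reads and ≥1 read per output. Fitness is the logarithm of genotype enrichment over wild-type enrichment, using inverse-variance-weighted replicate averages. The logarithm is base 2.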

| Variant | polymerase ribozyme fitness (log ratio) |
| --- | --- |
| C36U C93A C96G U109A | ≤ -4.2 |
| C36U C85G G152U | ≤ -4.2 |
| A37U G83A C85A C87A A98U A106G | ≤ -4.2 |
| A37G G48C A52C U56A C79A U104A U109A C116G C149G G152A | ≤ -4.2 |
| A37U U55A G58C A142U | -2.45 |
| A37G G81A G136U A142U | ≤ -4.2 |
| C38A A89G C95G G124A | -2.76 |
| A37U A60G G71U U78A C93A U104G A122C | ≤ -4.2 |
| C36U G50C A52G C93U G94C C99A G136A | ≤ -4.2 |
| A37U G94A U104G | -2.92 |
| C36U C95G C108A | -3.89 |
| C38G A40G A49G A60U C93A A121G | ≤ -4.2 |
| A37G U61G C93U A115C | -4.18 |
| A37G A60G U77G C105A | ≤ -4.2 |
| A37C A49C U53A A64G C76U G88U | ≤ -4.2 |
| A37U A40C G42C G81A A98C | ≤ -4.2 |
| C38A G50C C96A | -4.12 |
| A37G C63U G68U U77C U82A A89C C125A | ≤ -4.2 |
| A37U A52U C57U G74A C76U C93U C95U U109G | ≤ -4.2 |
| A37U U82G C87A | ≤ -4.2 |
| C38A A39C G42A G88C C95A C116A A120C C129U | ≤ -4.2 |

| Variant | polymerase ribozyme fitness (log ratio) |
| --- | --- |
| A37C C72U C99U C103U A107G | ≤ -4.2 |
| C36U G81A C95G C96A C99U C149G | ≤ -4.2 |
| C38A U56A G68C U78G G92A G126U C132G | ≤ -4.2 |
| A37C A41C U53G G59A G84A C103A U145A | ≤ -4.2 |
| A37C C93A U151G | ≤ -4.2 |
| C38A U56A G59A C87G | ≤ -4.2 |
| A37U G59C C149G | ≤ -4.2 |
| A37C A39C C95U G133U | ≤ -4.2 |
| C38A G50U | -0.722 |
| C38A G58U C69A C96A C114A | ≤ -4.2 |
| A37G C76A G94U U109G | ≤ -4.2 |
| C38A U53A U56G G88U G124A | ≤ -4.2 |
| A37C C43U G68U A73C C79G C95U U148G | ≤ -4.2 |
| A37C A41C C43A A49C U53A G94C | ≤ -4.2 |
| A37C G92C G124C | -2.65 |
| A37U G50U C79A G133A | ≤ -4.2 |
| A37C U61A G68U C96U A98G | ≤ -4.2 |
| C38A U61A C96G | -2.38 |
| A37C C93A | -2.8 |
| A37G G42C C76U G84C | ≤ -4.2 |
| A37C A49C G62C C99U A138U A142U | ≤ -4.2 |

| Variant | polymerase ribozyme fitness (log ratio) |
| --- | --- |
| C36U U55A A60C U146A | ≤ -4.2 |
| A37G C87U | -2.16 |
| C38A C54A C123G U151G | ≤ -4.2 |
| C38A A52C G68A G86A A142U | ≤ -4.2 |
| A37G A41U A60C U111G | ≤ -4.2 |
| C38A G62U G83A A91U C125U U148C G152U | ≤ -4.2 |
| A37C C96U G100C U102C C118G C131G | ≤ -4.2 |
| A37G U55A A66G C75U C85A A122U | ≤ -4.2 |
| A37C C38A C93A A97U | ≤ -4.2 |
| A37C A66U A106G | ≤ -4.2 |
| A37G C87U G94C | ≤ -4.2 |
| A37G U61C G94U U145C | ≤ -4.2 |
| A37C G58A C75A C99U | ≤ -4.2 |
| C36U C87A C131U G133A | ≤ -4.2 |
| A37G A64C U77C C85U G128U G136U G141C | ≤ -4.2 |
| C38G A41C G68A G81A C85U C95U C116G | ≤ -4.2 |
| A37C G94U A98U | -1.16 |
| C38A C72A A107C U109G | ≤ -4.2 |
| C36U G83U U102G A138G | ≤ -4.2 |
| A37C G50A A66G C95G U127A | ≤ -4.2 |
| C36U C93G C103G C129A G141C | ≤ -4.2 |

| Variant | polymerase ribozyme fitness (log ratio) |
| --- | --- |
| C38A C79A G140C | ≤ -4.2 |
| C36U U44A A106G A120U U139A | ≤ -4.2 |
| A37C U78G | ≤ -4.2 |
| A37C G68C C96A G126A | ≤ -4.2 |
| C38A U53A C57G C87A C93G A147C | ≤ -4.2 |
| C38G A49C C76G C93U C125A U135A G143C U144A | ≤ -4.2 |
| A37G G42C G46A U56A A66G A89C | ≤ -4.2 |
| A37C C63U A64U C76A A91U C93U C95G | ≤ -4.2 |
| A37C G70A C76A G84C | ≤ -4.2 |
| A37G U55A C57G A73U C87U G133U U146G | ≤ -4.2 |
| C36U G80C C85U A115U | ≤ -4.2 |
| A37G C43U G74C U144A | ≤ -4.2 |
| C36U G74A | ≤ -4.2 |
| A37U U61A C79A U148G | ≤ -4.2 |
| A37C A41G G86C G92U C95U | -3.05 |
| A37G C69G | -0.726 |
| C36U U61A G92A C95U U101G | ≤ -4.2 |
| C38G A52C G65C C95U C118G A122U | ≤ -4.2 |
| A37C A40C A66U C75G G94U A120G C131G G141A | ≤ -4.2 |
| A37G C85A C116A C118G U139A U144G | ≤ -4.2 |
| A37C A52C G84A | -3.24 |
